In all, about 55,000 compounds went through this assay and about 530 (0.96%) were called active. The shares of active, inactive and inconclusive entries below differ from those in the screen. Calls come from the whole dose curve; as a rule, active = well fitted cell-killing curve with a large enough effect; inconclusive = small, poorly fitted or top-dose-only effect; inactive = no such curve, though single readings can be large or run the other way. A potency beside an inconclusive call is a rough fit, not a confirmed value.
Test: qHTS Screen for Compounds that Selectively Target Cancer Cells with p53 Mutations: Cytotoxicity of p53 Null Cells at the Nonpermissive Temperature; note: nearly all actives have a fitted effect of over 50% in size;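 for activity, negative = cell killing: 0% = DMSO only and -100% = full killing by 100 µM tamoxifen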
Conditions: H1299 p53-null (neo) cells, 39C, ATPlite viability, 24 h; activity, negative = cell killing: at 46.1 µM (top of the series)
In short: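 H1299 lung cancer cells, p53-null (H1299-neo) or expressing p53 A138V (H1299-p53A138V), were plated overnight at 37C, then exposed to compounds at up to 46 uM for 24 hr at 39C. Viability was read by ATP-based luminescence.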
Potency is the fitted concentration of half-maximal effect; tags give direction and shape of the fitted curve.

Question: Which Potency does the source give for N#Cc1cccc(NC(=O)C2CCN(c3ncccn3)CC2)c1 here?
Answer: Its Potency is inconclusive: 0.794 µM [cytotoxic, full curve, poor fit].

Question: With Cc1cccc(NC(=O)CCn2nc(-c3ccccc3)c3ccccc3c2=O)c1 as the molecule, how does the “activity, negative = cell killing” value read?
Answer: Its value is inactive: 18.7%.

Question: With O=C(CCN1C(=O)c2ccccc2C1=O)Nc1cccnc1 as the molecule, how does the “activity, negative = cell killing” value read?
Answer: The value was inactive: -12.7%.

Question: With CCn1c2ccccc2c2cc(NC(=O)COc3ccc(C)c(C)c3)ccc21 as the molecule, how does the Potency read?
Answer: Its Potency is inconclusive: 31.6 µM [cytotoxic, single point].

Question: Which Potency does the source give for CCCCCN1C(C(=O)c2ccccc2)=C(NC(=O)c2ccccc2Cl)c2ccccc2S1(=O)=O here?
Answer: The Potency was inconclusive: 11.2 µM [cytotoxic, single point].

Question: Which “activity, negative = cell killing” value does the source give for Cc1cccc(-c2nc(SCC(=O)Nc3ccc4c(c3)OCO4)c(-c3ccccc3)[nH]2)c1 here?
Answer: Its value is inactive: 13.4%.

Question: Which “activity, negative = cell killing” value does the source give for O=C(Cn1c(=O)oc2cc(S(=O)(=O)NC3CCCC3)ccc21)Nc1ccc(F)c(F)c1 here?
Answer: The value was inactive: 3.55%.

Question: For COc1ccc(N2CCN(C(=O)c3oc4ccccc4c3NC(=O)c3ccccc3OC)CC2)cc1, which “activity, negative = cell killing” value is on record?
Answer: Its value is inactive: -14.5%.

Question: With Cc1cccc(-c2nc(SCC(=O)Nc3ccc4c(c3)OCCO4)c(-c3ccccc3)[nH]2)c1 as the molecule, how does the Potency read?
Answer: The Potency was inconclusive: 10 µM [cytotoxic, partial curve, poor fit].

Question: Which Potency does the source give for CC(C)c1ccc(-c2noc(SCC(=O)N3CCCCC3)n2)cc1 here?
Answer: Its Potency is inconclusive: 10 µM [cytotoxic, partial curve].

Question: For FC(F)(F)c1cccc(N2CCN(Cc3nnc(-c4ccccc4)o3)CC2)c1, which Potency is on record?
Answer: Its Potency is inconclusive: 1.26 µM [cytotoxic, full curve, poor fit].

Question: With COc1ccc2c(c1)Cc1sc(NC(=O)c3cccc(Cl)c3)nc1-2 as the molecule, how does the “activity, negative = cell killing” value read?
Answer: The value was inactive: 5.15%.

Question: Which Potency does the source give for COc1ccccc1N1CCN(Cc2cc(COC(C)C)c3cccnc3c2O)CC1 here?
Answer: Its Potency is active: 1.58 µM.

Question: With Cc1ccnc(NC(c2cc(C)ccc2O)c2ccc3cccnc3c2O)c1 (configuration not stated) as the molecule, how does the Potency read?
Answer: Its Potency is inconclusive: 3.16 µM [cytotoxic, partial curve].

Question: Which Potency does the source give for COc1ccc(S(=O)(=O)N(C(=O)c2ccncc2)c2ccc3oc(C)c(C(C)=O)c3c2)cc1 here?
Answer: The Potency was inconclusive: 12.6 µM [cytotoxic, partial curve, poor fit].

Question: Which activity, negative = cell killing does the source give for Cc1ccc(-n2c(=O)c3cccnc3n2CC(=O)Nc2ccccc2C(F)(F)F)cc1C here?
Answer: The activity, negative = cell killing was inconclusive: -32.2% [cytotoxic].

Question: With COc1ccc(N(C(=O)c2cc(OC)c(OC)c(OC)c2)S(=O)(=O)c2ccc(C)cc2)cc1 as the molecule, how does the “activity, negative = cell killing” value read?
Answer: The value was inactive: 1.66%.

Question: With CC(C)c1ccc(NC(=O)CSC2=Nc3ccccc3C3=NC(CC(=O)NCCc4ccccc4)C(=O)N23)cc1 (configuration not stated) as the molecule, how does the “activity, negative = cell killing” value read?
Answer: The value was inactive: 39.4%.

Question: For CCc1ccc(Nc2nc3ccccc3c3nnc(C)n23)cc1, which “activity, negative = cell killing” value is on record?
Answer: The value was inactive: -12.3%.

Question: For Cc1ccccc1OCC(=O)Nc1nnc(S(=O)(=O)N(C)c2ccccc2)s1, which Potency is on record?
Answer: The Potency was inconclusive: 3.55 µM [cytotoxic, single point].

Question: For O=C(Nc1ccc(Cl)cc1C(F)(F)F)c1cc(S(=O)(=O)NCc2ccccc2)ccc1F, which Potency is on record?
Answer: Its Potency is inconclusive: 12.6 µM [cytotoxic, single point].

Question: With CCCN1C(C(=O)c2ccccc2)=C(OC(=O)C(C)(C)C)c2ccccc2S1(=O)=O as the molecule, how does the Potency read?
Answer: Its Potency is inconclusive: 15.8 µM [cytotoxic, partial curve].

Question: With Cc1ccc(-n2ccnc(NCc3cccs3)c2=O)cc1C as the molecule, how does the “activity, negative = cell killing” value read?
Answer: Its value is inactive: -15.5%.

Question: For Cc1ccc(C)n1-c1ccccc1N, which Potency is on record?
Answer: Its Potency is inconclusive: 14.1 µM [cytotoxic, partial curve].

Question: For Cc1ccc2oc(C(=O)Nc3ccc(S(=O)(=O)Nc4ncccn4)cc3)cc(=O)c2c1, which Potency is on record?
Answer: The Potency was inconclusive: 0.0501 µM [cytotoxic, full curve, poor fit].

Question: Which “activity, negative = cell killing” value does the source give for Cn1c2ccccc2c2c(C(=O)N3CCN(c4cccc(C(F)(F)F)c4)CC3)cn(C3CCCCC3)c(=O)c21 here?
Answer: Its value is inactive: 7.33%.

Question: For COc1cccc(NC(=O)COc2ccc(C)cc2)c1, which Potency is on record?
Answer: The Potency was inconclusive: 12.6 µM [cytotoxic, single point].

Question: Which Potency does the source give for O=C(Cn1cc(S(=O)(=O)Cc2cccc(Cl)c2)c2ccccc21)Nc1ccc(F)c(Cl)c1 here?
Answer: The Potency was inconclusive: 20 µM [cytotoxic, partial curve].

Question: For CC(=O)c1cccc(Nc2cc(C)nc3nc(-c4ccccc4C)nn23)c1, which Potency is on record?
Answer: The Potency was inconclusive: 12.6 µM [cytotoxic, partial curve].

Question: For COc1ccc(-c2[nH]c(-c3ccccc3)nc2SCC(=O)Nc2ccc3c(c2)OCO3)cc1, which Potency is on record?
Answer: Its Potency is inconclusive: 12.6 µM [cytotoxic, single point].

Question: With CCc1ccc(C2N3CC4(C)CN2CC(c2ccccc2)(C3)C4=O)cc1 (configuration not stated) as the molecule, how does the Potency read?
Answer: The Potency was inconclusive: 15.8 µM [cytotoxic, partial curve].

Question: With Cc1ccc(NC(=O)c2ccc3c(=O)n4nc(Nc5ccccc5C)sc4nc3c2)cc1C as the molecule, how does the Potency read?
Answer: The Potency was inconclusive: 6.31 µM [cytotoxic, partial curve, poor fit].

Question: Which Potency does the source give for COc1ccc(OC)c(CCNC(=O)c2sc3nc4n(c(=O)c3c2C)CCCC4)c1 here?
Answer: Its Potency is inconclusive: 5.01 µM [cytotoxic, partial curve].

Question: Which Potency does the source give for Cc1cc(N2CCN(C)CC2)nc2ccc(NC(=O)Nc3ccccc3Cl)cc12 here?
Answer: The Potency was inconclusive: 2.82 µM [cytotoxic, full curve, poor fit].

Question: For COc1ccc(NC(=O)CCCN2C(=O)C(c3ccccc3)Oc3cccnc32)cc1OC (configuration not stated), which “activity, negative = cell killing” value is on record?
Answer: Its value is inactive: -6.89%.

Question: Which Potency does the source give for COc1ccc(NC(=O)c2oc3ccc4c(c3c2C)C(=O)CC(C)(C)O4)cc1OC here?
Answer: The Potency was active: 3.16 µM.

Question: For COc1ccc(CCC(=O)NCCc2csc(-c3cccc(F)c3)n2)cc1, which Potency is on record?
Answer: The Potency was inconclusive: 1 µM [cytotoxic, full curve, poor fit].

Question: Which “activity, negative = cell killing” value does the source give for CC(=O)Nc1ccc(-c2nnc3n(CC(C)C)c(=O)c4ccccc4n23)cc1 here?
Answer: Its value is inactive: -6.05%.

Question: Which Potency does the source give for COc1ccc(-c2noc(CSc3nnc(-c4ccncc4)n3-c3cccc(C)c3)n2)cc1OC here?
Answer: Its Potency is inconclusive: 0.005 µM [cytotoxic, full curve, poor fit].

Question: Which “activity, negative = cell killing” value does the source give for Cc1cccc(N2CCN(C(=O)c3cccc(-n4c(C)nc5cccnc54)c3)CC2C)c1 (configuration not stated) here?
Answer: The value was inactive: 13.1%.

Question: Which Potency does the source give for CN(C)c1ccc(-c2nc3ccccn3c2Nc2ccc3c(c2)OCCO3)cc1 here?
Answer: Its Potency is inconclusive: 31.6 µM [cytotoxic, single point].

Question: For COc1ccc(NC(=O)c2ccc3c(=O)n4nc(Nc5ccccc5C)sc4nc3c2)cc1, which “activity, negative = cell killing” value is on record?
Answer: The value was inactive: 16.2%.

Question: Which Potency does the source give for Cc1ccc(-n2nc(C)c(C(=O)NCCCN3CCN(c4ccccc4F)CC3)c2-n2cccc2)cc1 here?
Answer: Its Potency is inconclusive: 20 µM [cytotoxic, single point].

Question: With CCOc1ccccc1C(=O)Nc1cc2c(cc1C)n(C)c(=O)c(=O)n2C as the molecule, how does the Potency read?
Answer: Its Potency is inconclusive: 3.16 µM [cytotoxic, full curve].

Question: For COc1ccc(OCCCn2c(C)nc3cc(C)c(C)cc32)cc1, which Potency is on record?
Answer: Its Potency is inconclusive: 0.005 µM [cytotoxic, full curve].

Question: Which Potency does the source give for Cc1cn2c(=O)cc(COC(=O)c3ccc(NC(=O)c4ccc(C(C)(C)C)cc4)cc3)nc2s1 here?
Answer: Its Potency is inconclusive: 0.199 µM [cytotoxic, partial curve].

Question: With CN(C)c1ccc(CNC(=O)C2CCN(C(=O)c3ccc(-n4ccc5ccccc54)s3)CC2)cc1 as the molecule, how does the Potency read?
Answer: Its Potency is inconclusive: 11.2 µM [cytotoxic, single point].

Question: With C/C(=N\NC(=O)c1ccccc1)c1ccc(NC(=O)c2cccs2)cc1 as the molecule, how does the Potency read?
Answer: The Potency was inconclusive: 31.6 µM [cytotoxic, single point].

Question: For CC(=O)c1ccc(N2CCN(S(=O)(=O)c3ccc(-c4cnc(C5CC5)o4)cc3)CC2)cc1, which Potency is on record?
Answer: The Potency was inconclusive: 1.58 µM [cytotoxic, partial curve].

Question: For COc1ccc(NC(=O)c2ccco2)cc1NC(=O)c1ccc(OC(C)C)cc1, which “activity, negative = cell killing” value is on record?
Answer: Its value is inactive: -25.9%.

Question: Which Potency does the source give for CCCCNC(=O)CSc1nc2ccccc2nc1Cc1ccccc1 here?
Answer: Its Potency is inconclusive: 0.005 µM [cytotoxic, full curve, poor fit].

Question: For CC(NC(=O)C1CCN(C(=O)N2CCOc3ccccc32)CC1)c1ccccc1 (configuration not stated), which Potency is on record?
Answer: The Potency was inconclusive: 0.447 µM [cytotoxic, single point].

Question: For CCCCCCn1c(/C=C/c2ccccc2)nc2ccccc21, which Potency is on record?
Answer: Its Potency is active: 12.6 µM.

Question: For CSc1cccc(NC(=O)c2ccc3c(c2)CCCN3S(C)(=O)=O)c1, which Potency is on record?
Answer: Its Potency is inconclusive: 31.6 µM [cytotoxic, single point].

Question: With Cc1ccc(C)c(N2CCN(C(=O)Cn3c(=O)c4cccn4c4ccc(F)cc43)CC2)c1 as the molecule, how does the Potency read?
Answer: Its Potency is inconclusive: 25.1 µM [cytotoxic, single point].

Question: Which Potency does the source give for Cc1cccc(OCc2nc(C#N)c(NCc3ccccc3Cl)o2)c1 here?
Answer: The Potency was inconclusive: 3.16 µM [cytotoxic, partial curve].

Question: Which Potency does the source give for COc1cccc(NC(=O)c2ccn(C)n2)c1 here?
Answer: Its Potency is inconclusive: 11.2 µM [cytotoxic, partial curve].

Question: Which Potency does the source give for Oc1ccc(-c2nc3ccccn3c2Nc2ccc3c(c2)OCCO3)cc1 here?
Answer: The Potency was inconclusive: 0.0079 µM [cytotoxic, full curve, poor fit].

Question: With Cc1ccc(CN(Cc2ccco2)C(=O)COc2c(C)cc(C)cc2C)cc1 as the molecule, how does the Potency read?
Answer: Its Potency is inconclusive: 11.2 µM [cytotoxic, partial curve].

Question: With CCCN(CCC)CCCNC(=O)c1cc2c(=O)oc3ccc(C)cc3c2s1 as the molecule, how does the “activity, negative = cell killing” value read?
Answer: Its value is inactive: -4.31%.

Question: For c1ccc(-c2noc(-c3cccs3)n2)nc1, which Potency is on record?
Answer: The Potency was active: 14.1 µM.

Question: For O=S(=O)(Nc1cccc(Cl)c1)c1ccc2[nH]c3c(c2c1)CCCCCC3, which Potency is on record?
Answer: The Potency was inconclusive: 8.91 µM [cytotoxic, partial curve].

Question: For COc1ccc(N2CCN(C(=O)Cc3coc4ccc(C)cc34)CC2)cc1, which “activity, negative = cell killing” value is on record?
Answer: Its value is inactive: -11.6%.

Question: With Cc1ccc(C)c(N2CCN(CCCNC(=O)C3COc4ccccc4C3)CC2)c1 (configuration not stated) as the molecule, how does the “activity, negative = cell killing” value read?
Answer: Its value is inactive: 7.82%.

Question: With COc1ccc(-c2cc(C(=O)Oc3cccc(C)c3)c3ccccc3n2)cc1 as the molecule, how does the Potency read?
Answer: The Potency was inconclusive: 20 µM [cytotoxic, partial curve, poor fit].

Question: Which “activity, negative = cell killing” value does the source give for CCCS(=O)(=O)c1ncc(Cl)c(C(=O)N2CCN(c3ccc(OC)cc3)CC2)n1 here?
Answer: Its value is inactive: -12.5%.

Question: Which “activity, negative = cell killing” value does the source give for O=C(NC1CCCCC1)c1ccc(S(=O)(=O)N2CCCC2)cc1 here?
Answer: The value was inactive: -5.37%.

From PubChem BioAssay AID904 (National Center for Advancing Translational Sciences (NCATS), 2007)
